Data on eight molecules can be found in patent US20240043489A1, “Cytokine Prodrugs Comprising a Cleavable Linker” (Trutino Biosciences Inc., priority 2020, published 2024).

Read-outs that look alike come from different tables or passages of the source.

This experiment concerns HEK-Blue™ IL-2 cells. Kind of experiment: HEK-Blue IL2 reporter assay (SEAP, OD630). Format: cell-based. The note with it: for FOLD DIFFERENCE EC50 (HEK BLUE IL2): −MMP vs +MMP. How it is done:
Recombinant MMP9 and/or MMP2 (R&D Systems) was first activated with p-aminophenylmercuric acetate and this activated protease or equivalent amount of activating solution without the protease was used to digest or mock digest the fusion protein for 1 hr, 2 hr, 4 hr and overnight (18-22 hr) at 37 C. Cleavage assays are set up in TCNB buffer: 50 mM Tris, 10 mM CaCl2), 150 mM NaCl, 0.05% Brij-35 (w/v), pH 7.5. Digested protein was aliquoted and stored at −80° C. prior to testing. Aliquots of digests were subsequently analyzed by SDS-PAGE followed by Western blotting to evaluate the extent of cleavage. Digests were also assessed in functional assays such as CTLL-2 proliferation and HEK-Blue Interleukin reporter assays. As shown in FIGS. 2A-E, essentially complete cleavage by MMP9 protease of the fusion proteins with functional site is seen after overnight incubation. In contrast, proteins containing a scrambled MMP cleavage site are not cut (FIG. 2E). HEK-Blue™ IL-2 cells are specifically designed to monitor the activation of the JAK-STAT pathway induced by IL-2. Indeed, stimulation with human or murine IL-2 triggers the JAK/STAT5 pathway and induces secreted embryonic alkaline phosphatase (SEAP) production. SEAP can be readily monitored when using QUANTI-Blue™, a SEAP detection medium. These cells respond to human and murine IL-2. For the HEK Blue assay, untreated and digested samples are titrated and added to 50 000 HEK Blue cells per well in 200 ul medium in a 96-well plate and incubated at 37C in 5% CO2 for 20-24 hr. The following day, levels of SEAP are measured by adding 20 uL of cell supernatant to QuantiBlue reagent, followed by 1-3 h incubation at 37C and reading absorbance at 630 nm. FIGS. 3C-J, 3Q-Y and Table 5B-5C show results obtained from IL2 fusion proteins tested in HEK Blue IL2 assay.
A general note: A reporter such as luciferase makes a cellular process visible.

Setting [1] is: Table 5B, cleaved with MMP9, HEK BLUE IL2, read-out: +MMP EC50.
Where [2] appears, read: Table 5B, uncleaved, HEK BLUE IL2, read-out: −MMP EC50.
[3] abbreviates: Table 5C, cleaved with MMP9, read-out: +MMP EC50.
Where [4] appears, read: Table 5C, uncleaved, read-out: −MMP EC50.

B1: Construct F: SEQ ID NO 803: h IL2(C125S)-2x(SG4)-MMPcs1-2x(G4S)-chimeric IL2Ra(sushi mouse)-hIgG1 Fc (protein)
chain: [no letters for about 150 residues]SGGGGSGGGGGPLGVRGGGGGSGGGGSELCLYDPPEVPNATFKALSYKNGTILNCECKRGFRRLKELVYMRCLGNSWSSNCQCTSSATRNTTKQVTPQPEEQKERKTTEMQSPMQPVDQASLPGHCREPPPWENEATERIYHFVVGQMVYYQCVQGYRALHRGPAESVCKMTHGKTRWTQPQLICTGEMETSQFPGEEKPQASPEGRPESETSCLVTTTDFQIQTEMAATMETSIFTTEYQ[no letters for human IgG1 Fc]
As to B1, the “FOLD DIFFERENCE EC50 (HEK BLUE IL2)” value is recorded as 22. In addition, under setting [1], the half-maximal effective concentration (EC50) amounted to 0.0078 nM. Further, the EC50 under setting [2] is 0.174 nM.

B2: Construct AAA: SEQ ID NO 846: h IL2(C125S)-2x(SG4)-MMPcs1-2x(G4S)-hIL2Ra(M25I)-GSGGGG-hu IgG1 Fc (LALA) (protein)
chain: [no letters for about 150 residues]SGGGGSGGGGGPLGVRGGGGGSGGGGSELCDDDPPEIPHATFKAMAYKEGTILNCECKRGFRRIKSGSLYMLCTGNSSHSSWDNQCQCTSSATRNTTKQVTPQPEEQKERKTTEMQSPMQPVDQASLPGHCREPPPWENEATERIYHFVVGQMVYYQCVQGYRALHRGPAESVCKMTHGKTRWTQPQLICTGEMETSQFPGEEKPQASPEGRPESETSCLVTTTDFQIQTEMAATMETSIFTTEYQGSGGGG[no letters for human IgG1 Fc with changes]
With B2, the half-maximal effective concentration (EC50) under setting [3] worked out at 0.0089 nM and the EC50 under setting [4] worked out at 0.23 nM.

B3: Construct DDD: SEQ ID NO 849: h IL2(C125S)-2x(GHHPH)-MMPcs1-2x(G4S)-hIL2Ra(M25I)-GSGGGG-hu IgG1 Fc (LALA) (protein)
chain: [no letters for about 150 residues]GHHPHGHHPHGPLGVRGGGGGSGGGGSELCDDDPPEIPHATFKAMAYKEGTILNCECKRGFRRIKSGSLYMLCTGNSSHSSWDNQCQCTSSATRNTTKQVTPQPEEQKERKTTEMQSPMQPVDQASLPGHCREPPPWENEATERIYHFVVGQMVYYQCVQGYRALHRGPAESVCKMTHGKTRWTQPQLICTGEMETSQFPGEEKPQASPEGRPESETSCLVTTTDFQIQTEMAATMETSIFTTEYQGSGGGG[no letters for human IgG1 Fc with changes]
For the molecule B3, the 50% effective concentration (EC50) is, setting by setting: under setting [3], 0.0094 nM; under setting [4], 0.181 nM.

B4: Construct L: SEQ ID NO 840: h IL2(C125S)-2x(SG4)-MMPcs1-2x(G4S)-hIL2Ra([…]; SGSL39-42ELV)-hIgG1 Fc-6xHis (protein)
chain: [no letters for about 150 residues]SGGGGSGGGGGPLGVRGGGGGSGGGGSELCDDDPPEIPHATFKAMAYKEGTMLNCECKRGFRRIKELVYMLCTGNSSHSSWDNQCQCTSSATRNTTKQVTPQPEEQKERKTTEMQSPMQPVDQASLPGHCREPPPWENEATERIYHFVVGQMVYYQCVQGYRALHRGPAESVCKMTHGKTRWTQPQLICTGEMETSQFPGEEKPQASPEGRPESETSCLVTTTDFQIQTEMAATMETSIFTTEYQ[no letters for human IgG1 Fc and a few adjoining residues]
modifications: 6xHis tag
notes: SGSL39-42ELV)-hIgG1 Fc-6xHis
Turning to B4, the “FOLD DIFFERENCE EC50 (HEK BLUE IL2)” value turned out to be 7.3. The EC50 under setting [1] worked out at 0.0061 nM. The 50% effective concentration (EC50) under setting [2] was determined as 0.0453 nM.

B5: Construct I: SEQ ID NO 837: h IL2(C125S)-2x(SG4)-MMPcs1-2x(G4S)-hIL2Ra([…]; M25I)-hIgG1 Fc-6xHis (protein)
chain: [no letters for about 150 residues]SGGGGSGGGGGPLGVRGGGGGSGGGGSELCDDDPPEIPHATFKAMAYKEGTILNCECKRGFRRIKSGSLYMLCTGNSSHSSWDNQCQCTSSATRNTTKQVTPQPEEQKERKTTEMQSPMQPVDQASLPGHCREPPPWENEATERIYHFVVGQMVYYQCVQGYRALHRGPAESVCKMTHGKTRWTQPQLICTGEMETSQFPGEEKPQASPEGRPESETSCLVTTTDFQIQTEMAATMETSIFTTEYQ[no letters for human IgG1 Fc and a few adjoining residues]
For B5, the “FOLD DIFFERENCE EC50 (HEK BLUE IL2)” value was found to be 43. For the same molecule, the 50% effective concentration (EC50) under setting [1] came out at 0.0074 nM. Also, the EC50 under setting [2] came to 0.317 nM.

B6: Construct K: SEQ ID NO 839: h IL2(C125S)-2x(SG4)-MMPcs1-2x(G4S)-hIL2Ra([…]; DD4-5LY)-hIgG1 Fc-6xHis (protein)
chain: [no letters for about 150 residues]SGGGGSGGGGGPLGVRGGGGGSGGGGSELCLYDPPEIPHATFKAMAYKEGTMLNCECKRGFRRIKSGSLYMLCTGNSSHSSWDNQCQCTSSATRNTTKQVTPQPEEQKERKTTEMQSPMQPVDQASLPGHCREPPPWENEATERIYHFVVGQMVYYQCVQGYRALHRGPAESVCKMTHGKTRWTQPQLICTGEMETSQFPGEEKPQASPEGRPESETSCLVTTTDFQIQTEMAATMETSIFTTEYQ[no letters for human IgG1 Fc and a few adjoining residues]
modifications: 6xHis tag
notes: DD4-5LY)-hIgG1 Fc-6xHis
As to B6, the “FOLD DIFFERENCE EC50 (HEK BLUE IL2)” value is 17. Besides, under setting [1], the concentration giving a half-maximal response (EC50) was 0.0055 nM. Also, under setting [2], the concentration giving a half-maximal response (EC50) was 0.0933 nM.

B7: Construct J: SEQ ID NO 838: h IL2(C125S)-2x(SG4)-MMPcs1-2x(G4S)-hIL2Ra([…]; L42V)-hIgG1 Fc-6xHis (protein)
chain: [no letters for about 150 residues]SGGGGSGGGGGPLGVRGGGGGSGGGGSELCDDDPPEIPHATFKAMAYKEGTMLNCECKRGFRRIKSGSVYMLCTGNSSHSSWDNQCQCTSSATRNTTKQVTPQPEEQKERKTTEMQSPMQPVDQASLPGHCREPPPWENEATERIYHFVVGQMVYYQCVQGYRALHRGPAESVCKMTHGKTRWTQPQLICTGEMETSQFPGEEKPQASPEGRPESETSCLVTTTDFQIQTEMAATMETSIFTTEYQ[no letters for human IgG1 Fc and a few adjoining residues]
modifications: 6xHis tag
notes: L42V)-hIgG1 Fc-6xHis
Regarding B7, the “FOLD DIFFERENCE EC50 (HEK BLUE IL2)” value is on record as 21. In addition, the EC50 under setting [1] was determined as 0.0059 nM. Also, the EC50 under setting [2] was 0.126 nM.

B8: Construct EEE (protein)
chain: [no letters for about 150 residues]VRIQRKKEKMKETGPLGVRGGGGGSGGGGSELCDDDPPEIPHATFKAMAYKEGTILNCECKRGFRRIKSGSLYMLCTGNSSHSSWDNQCQCTSSATRNTTKQVTPQPEEQKERKTTEMQSPMQPVDQASLPGHCREPPPWENEATERIYHFVVGQMVYYQCVQGYRALHRGPAESVCKMTHGKTRWTQPQLICTGEMETSQFPGEEKPQASPEGRPESETSCLVTTTDFQIQTEMAATMETSIFTTEYQGSGGGG[no letters for human IgG1 Fc with changes]
B8: the EC50 is 0.0069 nM under setting [3] and 0.149 nM under setting [4].

Broadly, the EC50 is the concentration at which the effect is half-maximal.
